Assays:
human IL2Rα-Fc = target: T1, human IL2Rα-Fc (human, UniProt P01589 22-240); assay: SPR; Biacore X-100; CM5 chip coated with anti-human Fc antibody (5000 RU); IL2Rα-Fc, IL2Rβ-Fc or a 1:1 mixture of each captured at 10 ug/mL in HBSP with 0.1 mg/mL BSA; analytes in 5 3-fold dilutions from 100 nM (IL2) or 300 nM (NKTR-214-AC), 3 minutes each; fit to a 1:1 model, Kd from kd/ka; settings: both partners purified
T1 construct: IL2 receptor alpha subunit, human; Probably the extracellular domain fused to Fc; Captured by anti-human Fc antibody; also called IL2 receptor alpha subunit; source: bought: Symansis
T1 sequence (looked up): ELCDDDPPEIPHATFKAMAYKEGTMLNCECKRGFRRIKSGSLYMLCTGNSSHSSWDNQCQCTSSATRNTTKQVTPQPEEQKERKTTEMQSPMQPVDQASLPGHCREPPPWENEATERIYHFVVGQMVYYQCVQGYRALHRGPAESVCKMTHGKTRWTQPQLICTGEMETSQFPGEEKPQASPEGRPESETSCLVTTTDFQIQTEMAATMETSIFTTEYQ

human IL2Rβ-Fc = target: T2, human IL2Rβ-Fc (human, UniProt P14784 27-240); assay: as above; settings: both partners purified
T2 construct: IL2 receptor beta subunit, human; Probably the extracellular domain fused to Fc; Captured by anti-human Fc antibody; also called IL2 receptor beta subunit; source: bought: Symansis
T2 sequence (looked up): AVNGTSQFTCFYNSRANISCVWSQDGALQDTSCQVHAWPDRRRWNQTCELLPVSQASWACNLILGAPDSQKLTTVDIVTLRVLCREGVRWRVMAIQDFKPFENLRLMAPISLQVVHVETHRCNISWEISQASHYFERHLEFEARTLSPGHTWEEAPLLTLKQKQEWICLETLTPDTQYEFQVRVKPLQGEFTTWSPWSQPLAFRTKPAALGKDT

B1: interleukin-2 (IL2), aldesleukin sequence (ligand)
chain: not shown
notes: interleukin-2, human; also called free-IL2; recombinant interleukin-2 human
Human IL2Rα-Fc
  Kd: 8.57 nM
  koff: 0.415 s⁻¹
  kon: 4.84e+07 M⁻¹ s⁻¹
Human IL2Rβ-Fc
  Kd: 239 nM
  koff: 0.301 s⁻¹
  kon: 1.26e+06 M⁻¹ s⁻¹
